Test results taken from PubChem BioAssay AID1347417 (National Center for Advancing Translational Sciences (NCATS), 2020).
The campaign covered roughly 120,000 compounds. About 5,300 (4.4%) were called active. Inconclusive means that the source gave no clear call. Such entries were picked first, then a sample of the others. Calls follow the shape of the dose curve; as a rule, active = well fitted inhibition curve with a large enough effect; inconclusive = small, poorly fitted or top-dose-only effect; inactive = no such curve, though single readings can be large or run the other way. Where the call is inconclusive, the potency comes from a doubtful curve fit.

assay: qHTS Primary assay for Inhibitors of Plasmodium falciparum Dd2 growth in vitro; also: nearly all actives have a fitted effect of over 65% in size;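 as to activity, negative = inhibition: plate controls were DMSO vehicle for no effect and reference drug for full effect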; conditions: P. falciparum Dd2 growth, SYBR Green, 72 h; activity, negative = inhibition: at 28.9 µM (top of the series) unless noted; series mostly up to 28.9 µM
In short: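 Infected erythrocytes (Dd2, 0.3% parasitemia, 2.5% hematocrit final) are added to compound in RPMI-1640/Albumax II medium, grown 72 h at 37C in low oxygen, then lysed with saponin/Triton-X containing SYBR Green and read by fluorescence.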
Potency is read from the fitted curve at half-maximal effect; tags tell the direction and shape of the fitted curve.

Question: Which Potency does the source give for `COc1ccccc1CN1CCN(C(=O)COc2cccc(C)c2)CC1` here?
Answer: inconclusive: 17.8 µM [inhibitor, single point]

Question: For `O=C1CCC2(CCN1CC1CC1)CCN(C(=O)c1cccc(F)c1)CC2`, which Potency is on record?
Answer: inactive

Question: For `COc1ccc(NC(=O)CN2C(=O)CN=C(c3ccccc3)c3ccccc32)c(OC)c1`, which Potency is on record?
Answer: inactive

Question: Which Potency does the source give for `OC(COc1ccccc1CNC1(c2ccccc2)CC1)CN1CCCCC1` (stereo unspecified) here?
Answer: inconclusive: 1.41 µM [inhibitor, partial curve, poor fit]

Question: With `CC(C)CN1CC[C@H](c2nc3c(C(N)=O)cccc3[nH]2)C1` as the compound, how does the Potency read?
Answer: inconclusive: 39.8 µM [inhibitor, single point]

Question: Which Potency does the source give for `Cn1ccc2cc(S(=O)(=O)N3CCCN(C(=O)Nc4ccccc4Br)CC3)ccc21` here?
Answer: inconclusive: 4.47 µM [inhibitor, partial curve, poor fit]

Question: For `Cc1ccccc1CNC(=O)c1ccc2c(c1)N(C)C1CCCCN1C2=O` (stereo unspecified), which Potency is on record?
Answer: active: 4.47 µM

Question: Which Potency does the source give for `O=C(N1CC(Oc2ccc(-c3noc(-c4ccccc4)n3)cc2)C1)C1(c2ccccc2)CC1` here?
Answer: inconclusive: 0.355 µM [inhibitor, full curve, poor fit]

Question: For `CCOc1ccc(CCNC(=O)CCCn2nc(C)c3sc4ccccc4c3c2=O)cc1OCC`, which Potency is on record?
Answer: inconclusive: 17.8 µM [inhibitor, single point]

Question: Which Potency does the source give for `CCn1c2ccccc2c2nnc(SCCN3CCCCC3)nc21` here?
Answer: inconclusive: 1.26 µM [inhibitor, single point]

Question: With `Cc1ccc(N2CCC(NC(=O)Cc3cccs3)C2=O)cc1C` (stereo unspecified) as the compound, how does the Potency read?
Answer: inactive

Question: For `COc1ccc(C(=O)N2CCC3(CC2)N(CC2CC2)C(=O)CS3=O)cn1` (stereo unspecified), which Potency is on record?
Answer: inactive

Question: Which Potency does the source give for `O=C(CCC1CCCC1)N1CCCC1c1nc(CCOCC2CC2)no1` (stereo unspecified) here?
Answer: inconclusive: 20 µM [inhibitor, single point]

Question: With `CC(C)c1nc2c(c(-c3ccc(Cl)cc3)n1)CN(C(=O)c1ccccc1)CC2` as the compound, how does the Potency read?
Answer: inconclusive: 17.8 µM [inhibitor, partial curve, poor fit]

Question: Which Potency does the source give for `CSc1ccc(-c2nc3c(C)cccn3c2Nc2ccc3c(c2)OCCO3)cc1` here?
Answer: inconclusive: 10 µM [inhibitor, single point]

Question: For `CN1CCN(c2ccc(-c3cc4c(ccn4C)c(C(=O)NCc4cnccn4)n3)cc2)CC1`, which Potency is on record?
Answer: inconclusive: 10 µM [inhibitor, single point]

Question: With `N=c1n(CCN2CCCCC2)c2ccccc2n1CC(O)COc1ccccc1` (stereo unspecified) as the compound, how does the Potency read?
Answer: inconclusive: 7.08 µM [inhibitor, partial curve, poor fit]

Question: For `Cc1ccc(C)c(N2CCN(C(=O)c3ccc(Nc4nc5ccccc5n5nnnc45)cc3)CC2)c1`, which activity, negative = inhibition is on record?
Answer: inconclusive: -52.8% [inhibitor] [at 5.79 µM]

Question: With `CC(C)N(C(=O)c1ccccc1-c1cc(NC2CC2)nc(N)n1)C(C)C` as the compound, how does the Potency read?
Answer: inconclusive: 15.8 µM [inhibitor, single point]

Question: Which Potency does the source give for `CC[C@H]1CN2CC[C@H]1C[C@@H]2CNS(=O)(=O)c1ccc(C)cc1` here?
Answer: inconclusive: 12.6 µM [inhibitor, single point]

Question: Which Potency does the source give for `Cc1cnc(C(=O)N[C@@H]2CCC[C@@H]2C(=O)NCCc2ccc(Cl)cc2)cn1` here?
Answer: inactive

Question: With `CC(C)(N)C(=O)NCc1nc(-c2cccc(F)c2)c(-c2ccccn2)[nH]1` as the compound, how does the Potency read?
Answer: inconclusive: 7.94 µM [inhibitor, partial curve, poor fit]

Question: For `COc1ccc(-c2cc(N3CCN(C(=O)Cc4ccc(Br)cc4)CC3)n[nH]2)cc1`, which Potency is on record?
Answer: inconclusive: 3.98 µM [inhibitor, single point]

Question: With `O=C(Cn1ccn2nc(-c3ccc(F)cc3)c(CO)c2c1=O)N1CCCCCC1` as the compound, how does the Potency read?
Answer: inconclusive: 14.1 µM [inhibitor, partial curve, poor fit]

Question: Which Potency does the source give for `CN(C)C(=O)c1ccc(OC2CCN(C(=O)c3ccc(Br)cc3)CC2)nc1` here?
Answer: inactive

Question: For `O=C(Nc1cccc(-c2nnc3n2CCCC3)c1)c1ccn[nH]1`, which Potency is on record?
Answer: inconclusive: 7.08 µM [inhibitor, partial curve, poor fit]

Question: For `O=C(c1ccccc1Cl)N1CCc2nc(-c3ccccc3)nc(-c3ccc(Cl)cc3)c2C1`, which Potency is on record?
Answer: inconclusive: 1.58 µM [inhibitor, full curve, poor fit]

Question: Which Potency does the source give for `Cn1ncc2c(N3CCN(S(N)(=O)=O)CC3)nc(C3CCCC3)nc21` here?
Answer: inconclusive: 12.6 µM [inhibitor, partial curve, poor fit]

Question: Which Potency does the source give for `CCN(C(=O)CN1C(=O)COc2ccc(S(=O)(=O)N3CCOCC3)cc21)c1cccc(C)c1` here?
Answer: inconclusive: 17.8 µM [inhibitor, single point]

Question: Which Potency does the source give for `O=C(N[C@H]1CCN2C(=O)c3cc(-c4ccccc4F)ccc3NC(=O)[C@H]12)c1cccs1` here?
Answer: inconclusive: 17.8 µM [inhibitor, single point]

Question: For `CCc1ncc(C(=O)N2CCCC(CCc3cccc(C(F)(F)F)c3)C2)cn1` (stereo unspecified), which Potency is on record?
Answer: inconclusive: 11.2 µM [inhibitor, partial curve]

Question: Which Potency does the source give for `COc1ccc(-c2nc(-c3nnn4c3COC(c3ccc(Cl)cc3)C4)no2)cc1OC` (stereo unspecified) here?
Answer: inconclusive: 10 µM [inhibitor, single point]

Question: For `CCNC(=O)c1ccc(CSc2nc3cccnc3n2Cc2ccc(OC)cc2)cc1`, which Potency is on record?
Answer: inconclusive: 10 µM [inhibitor, partial curve]

Question: For `Fc1ccc2nc(CO[C@H]3CN(Cc4ccccc4)C[C@H]3F)[nH]c2c1`, which Potency is on record?
Answer: active: 12.6 µM

Question: For `CCc1ccc(NC(=O)N2c3ccccc3Sc3ccccc32)cc1`, which activity, negative = inhibition is on record?
Answer: inactive: -20.9% [at 5.79 µM]

Question: Which Potency does the source give for `COCCCNC(=O)c1csc(N2CCN(c3ccccc3)CC2)n1` here?
Answer: inconclusive: 10 µM [inhibitor, partial curve, poor fit]

Question: For `CN(C)c1ncc2c(n1)C(C)(C(=O)Nc1ccccc1)CCC2` (stereo unspecified), which Potency is on record?
Answer: inactive

Question: For `O=C(Cn1cnc2onc(-c3ccc(F)cc3)c2c1=O)Nc1cccc(C(F)(F)F)c1`, which Potency is on record?
Answer: inconclusive: 11.2 µM [inhibitor, single point]

Question: Which Potency does the source give for `CS(=O)(=O)N(CC(=O)NCCSCc1ccccc1)c1cc(C(F)(F)F)ccc1Cl` here?
Answer: inactive

Question: For `CCC(C)C(=O)NC1CCN(c2cn[nH]c(=O)c2)CC1` (stereo unspecified), which Potency is on record?
Answer: inconclusive: 2.51 µM [inhibitor, partial curve, poor fit]

Question: For `CCOC(=O)c1nnn(CC(=O)Nc2cc(C)cc(C)c2)c1C(=O)OCC`, which Potency is on record?
Answer: inactive

Question: With `CCc1nc(-c2c3n(c(=O)n(CC(N)=O)c2=O)CCCCC3)no1` as the compound, how does the Potency read?
Answer: inactive

Question: Which Potency does the source give for `CC(C)N1C[C@H](O)C[C@H]1c1nnc2n1CCN(C(=O)Cc1ccccc1)CC2` here?
Answer: inactive

Question: Which Potency does the source give for `CN(CCc1ccccc1)C1(C(=O)N2CCCC(C#N)C2)Cc2ccccc2C1` (stereo unspecified) here?
Answer: inconclusive: 11.2 µM [inhibitor, partial curve]

Question: With `CC(=O)Nc1ccc(NC(=O)c2cc3c(n2C)CCN(Cc2ccccc2)C3)cc1` as the compound, how does the Potency read?
Answer: inconclusive: 12.6 µM [inhibitor, partial curve, poor fit]

Question: With `Cc1ccccc1NC(=O)Cn1c(=O)n(Cc2ccc3c(c2)OCO3)c(=O)c2ccc(C(=O)NC3CCCCC3)cc21` as the compound, how does the Potency read?
Answer: inconclusive: 4.47 µM [inhibitor, partial curve, poor fit]

Question: With `COCCOC1CCOC2(CCN(C(=O)c3cccc(C)c3)CC2)C1` (stereo unspecified) as the compound, how does the Potency read?
Answer: inconclusive: 7.08 µM [inhibitor, partial curve]

Question: With `O=C(NCCc1ccccc1)c1cnc2n[nH]c(-c3ccccc3)c2n1` as the compound, how does the Potency read?
Answer: inconclusive: 31.6 µM [inhibitor, single point]

Question: With `CN(C)[C@@H]1CO[C@H](CNC(=O)c2ccccc2)[C@H]1O` as the compound, how does the Potency read?
Answer: inactive

Question: Which Potency does the source give for `COc1ccc2nc(CO[C@H]3CN(Cc4ccc(S(C)(=O)=O)cc4)C[C@H]3F)[nH]c2c1` here?
Answer: inactive

Question: For `CC(=O)N1CCC2(CC1)CN(C(=O)N(C)C)Cc1ccccc1O2`, which Potency is on record?
Answer: inactive

Question: With `c1cnc2nc(C3CCN(C4CCCCC4)C3)[nH]c2c1` (stereo unspecified) as the compound, how does the Potency read?
Answer: inconclusive: 15.8 µM [inhibitor, single point]

Question: Which Potency does the source give for `C#CCN(C)Cc1nc(C2(O)CCN(C(=O)C3CCCCC3)CC2)cs1` here?
Answer: inconclusive: 11.2 µM [inhibitor, partial curve]

Question: With `O=C(c1cccs1)N1CCC2(CC1)NC(=O)N(Cc1ccccc1)C2=O` as the compound, how does the Potency read?
Answer: inactive

Question: Which Potency does the source give for `CC1CCN(C(=O)CN2c3ccc(C(C)C)cc3-c3ccccc3S2(=O)=O)CC1` here?
Answer: inconclusive: 10 µM [inhibitor, single point]

Question: For `C=CCNC(=O)C(NC(=O)c1cccc(OC)c1)C1CCN(C(=O)c2cccc(C)c2)CC1` (stereo unspecified), which Potency is on record?
Answer: inconclusive: 10 µM [inhibitor, single point]

Question: Which Potency does the source give for `O=C(Cc1cccs1)N1CC(Oc2ccccc2-c2nc(C3CC3)no2)C1` here?
Answer: inconclusive: 8.91 µM [inhibitor, partial curve, poor fit]

Question: With `CCOC(=O)Cc1ccc(NC(=O)Nc2cc3c(cc2N2CCCCC2)n(C)c(=O)n3C)cc1` as the compound, how does the Potency read?
Answer: inconclusive: 17.8 µM [inhibitor, single point]

Question: For `Cc1cnc(C(=O)N2CCc3nnc([C@@H]4C[C@@H](O)CN4C)n3CC2)cn1`, which Potency is on record?
Answer: inactive

Question: Which Potency does the source give for `c1ccc(-c2cnc(Nc3cccnc3)c3c2CCO3)cc1` here?
Answer: inconclusive: 17.8 µM [inhibitor, partial curve, poor fit]

Question: Which Potency does the source give for `CN1CCCCCCN(Cc2ccc3[nH]ccc3c2)[C@H]2CCC[C@H]2C1=O` here?
Answer: active: 2 µM

Question: Which Potency does the source give for `Cc1noc2c(N3CCN(Cc4ccccc4)CC3)cc(-c3ccsc3)nc12` here?
Answer: inactive

Question: With `Cc1ccc(C(=O)N(C)CC2CCOCC2)cc1F` as the compound, how does the Potency read?
Answer: inactive

Question: Which Potency does the source give for `CCOC(=O)c1cc(OC(=O)c2ccc(OC)cc2)n(-c2ccccc2)n1` here?
Answer: inactive

Question: For `COC[C@H]1CCCN1Cc1nc(C2(O)CCN(C3CCCC3)CC2)cs1`, which Potency is on record?
Answer: inactive

Question: Which Potency does the source give for `O=C(N1c2ccccc2CC1c1noc(C2CCOCC2)n1)C1(c2ccccc2)CC1` (stereo unspecified) here?
Answer: inconclusive: 2.82 µM [inhibitor, partial curve, poor fit]
